Measurements taken from PubChem BioAssay AID1346428 (National Center for Advancing Translational Sciences (NCATS), 2018).
Values joined by “and” are separate entries in the source; they are usually repeats but may differ in a detail not shown here. Equal values may be shown once. The whole screen tested about 48,000 compounds, of which about 1,200 (2.5%) were called active. Not shown: some 2% with an inconclusive outcome.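 Rule for the calls: active = activation of at least 60% and not above a set upper limit (about 1 call in 100 departs from these limits); inconclusive = activation of 40% to 60%, or above that upper limit; inactive = activation under 40%.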 The list shows a part of the results.

These molecules were tested against Probable G-protein coupled receptor 32 (Homo sapiens) (UniProt O75388) (assay: qHTS for Agonists of Human Resolvin D1 Receptor DRV1). Conditions: CHO-K1 GPR32 beta-arrestin PathHunter luminescence, 90 min; at 76.9 µM; hits give high values; zero percent set by DMSO-only wells.
Chain of UniProt O75388 (O75388 whole entry, looked up, the tested form may be a part): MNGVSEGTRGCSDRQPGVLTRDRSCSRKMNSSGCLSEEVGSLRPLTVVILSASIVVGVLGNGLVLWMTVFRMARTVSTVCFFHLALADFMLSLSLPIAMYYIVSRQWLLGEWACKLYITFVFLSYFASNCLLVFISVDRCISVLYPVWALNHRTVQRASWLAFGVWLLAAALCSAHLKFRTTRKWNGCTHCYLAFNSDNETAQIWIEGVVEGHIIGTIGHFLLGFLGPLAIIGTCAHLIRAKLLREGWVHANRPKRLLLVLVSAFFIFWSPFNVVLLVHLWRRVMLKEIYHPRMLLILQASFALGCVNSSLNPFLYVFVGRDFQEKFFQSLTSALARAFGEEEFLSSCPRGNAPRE
Method in brief: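 PathHunter enzyme-fragment complementation, CHO-K1 GPR32 stable line; 2,500 cells/well, overnight attach; cpd 90 min 37 °C 5% CO2; detection reagent 1 h RT; chemiluminescence. DMSO = EC0.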
Note: 0% is about no effect.

| SMILES | activation |
| --- | --- |
| CCOC(=O)c1ccc(-c2ccc(/C=C(\C#N)C(=O)Nc3ccc(C)cc3)o2)cc1 | inactive: 6.1% |
| O=C(O)CCC(=O)Nc1ccc(S(=O)(=O)Nc2nccs2)cc1 | inactive: -22.6% |
| COc1cc(NC(=O)C2Cc3ccccc3N2C(=O)c2ccccc2)cc(OC)c1 (stereo not given) | inactive: -39.4% |
| Cc1ccc(-c2nc(CS(=O)CC(=O)NCCc3ccc(Cl)cc3)c(C)o2)cc1 (stereo not given) | inactive: -9.65% |
| CC(CNC(=O)CCCn1c(=O)c2cccn2c2ccc(F)cc21)c1ccccc1 (stereo not given) | inactive: -16.8% |
| Cc1cccc(C(=O)NNc2ncnc3c2cnn3-c2ccc(C)c(Cl)c2)c1 | inactive: -5.01% |
| O=C1C2C=CC=CC2=NC(=S)N1CCN1CCC(=C(c2ccc(F)cc2)c2ccc(F)cc2)CC1 (stereo not given) | inactive: -9.46% |
| CCOc1ccc(-n2nc(CO)c(C(=O)NCC(C)O)n2)cc1 (stereo not given) | inactive: -2.7% |
| COc1ccc(OCCn2nnc3sc4c(c3c2=O)CCCC4)cc1 | inactive: -5.86% |
| COC(=O)c1cc2sccc2n1CC(=O)Nc1cc(Cl)ccc1OC | inactive: 25.7% |
| COc1ccc(N2CCN(c3ncnc4c3nnn4C)CC2)cc1 | inactive: -9.39% |
| Cc1ccc(NC(=O)Cn2c(=O)n(CCCCC(=O)NCc3ccc4c(c3)OCO4)c(=O)c3ccccc32)cc1 | inactive: -10% |
| CCC(=O)N1c2ccccc2CC1C(=O)N1CCN(c2ccccc2F)CC1 (stereo not given) | inactive: -18.5% |
| CCOC(=O)c1c(C)[nH]c(C)c1S(=O)(=O)NCC(=O)NCc1ccccc1C | inactive: 5.44% |
| COc1cnc(NS(=O)(=O)c2ccc(N)cc2)nc1 | inactive: 3.5% |
| CCOc1ccccc1CNS(=O)(=O)c1cc(-c2onc(C)c2C)ccc1OC | inactive: -14.8% |
| CCOC(=O)C1CCN(c2ncnc3c2c(-c2ccccc2)cn3-c2ccc(Cl)cc2)CC1 | inactive: -15.9% |
| N#Cc1c(C(F)(F)F)cc(-c2cccs2)nc1SCc1ccccc1F | inactive: 13.2% |
| CCOc1ccccc1Oc1nc(C)nc2c1oc1ccccc12 | inactive: -16.3% |
| Clc1ccccc1CSc1nc(NCCc2ccccc2)c2ccccc2n1 | inactive: -20.2% |
| O=C(O)CCn1c2c(c3ccccc31)C[C@H](NS(=O)(=O)c1ccc(F)cc1)CC2 | inactive: 29.1% |
| O=C(CSc1ncc2c(n1)-c1ccccc1N(Cc1ccc(Cl)cc1)S2(=O)=O)c1ccccc1 | inactive: 0.289% |

| SMILES | activation |
| --- | --- |
| CCOc1ccccc1Nc1sc(C(=O)c2ccc(Cl)cc2)c(N)c1S(=O)(=O)c1ccccc1 | inactive: -13.5% |
| CCOc1ccc(NC(=O)CCc2nnc3n(C)c(=O)c4sccc4n23)cc1 | inactive: -2.95% |
| Cc1cccc(N2CCN(C(=O)c3ccc4c(c3)N(Cc3cccc(Cl)c3)C(=O)c3ccccc3S4(=O)=O)CC2)c1C | inactive: -22.2% |
| CCN(Cc1ccccc1)C(=O)Cn1ncc2c(=O)oc3ccc(C)cc3c21 | inactive: -9.11% |
| O=C(O)Cc1cn(-c2ccccc2)nc1-c1ccc(Cl)cc1 | inactive: -2.71% |
| CCc1ccc(NC(=O)CSc2ncc(S(=O)(=O)c3cc(C)ccc3C)c(=O)[nH]2)cc1 | inactive: 5.53% |
| CC1CCN(c2nc3ccc(C(=O)NCCc4ccc(S(N)(=O)=O)cc4)cc3s2)CC1 | inactive: -8.22% |
| COc1ccc(CC(=O)NC2CC(=O)N(c3ccc(C)c(C)c3)C2)cc1OC (stereo not given) | inactive: -2.45% |
| COc1ccc(-c2nc(Cn3c(SCc4ccccc4F)nc4cccnc43)c(C)o2)cc1 | inactive: -18.4% |
| Cc1ccc(CNC(=O)CN2C(=O)C3(SCC(=O)N3c3ccc(F)c(F)c3)c3ccccc32)cc1 (stereo not given) | inactive: -11.1% |
| Cc1cccc2sc(N(Cc3cccnc3)C(=O)C3COc4ccccc4O3)nc12 (stereo not given) | inactive: -17.7% |
| O=C(CN1C(=O)CCc2cc(S(=O)(=O)N3CCCCC3)ccc21)NCc1ccc(Cl)cc1 | inactive: -17.9% |
| CCOC(=O)C(Cc1ccccc1)NC(=O)CCc1c(C)nc2c(c(C)nn2-c2ccc(C)c(C)c2)c1C (stereo not given) | inactive: -3.74% |
| COC(=O)c1ccccc1NC(=O)C1CCCN(c2nnc(C)c3c(C)n(-c4ccccc4)nc23)C1 (stereo not given) | inactive: 10.7% |
| COC(=O)c1c(NC(=O)c2ccc(S(=O)(=O)N(C)C3CCCCC3)cc2)sc2c1CCN(C)C2 | inactive: 5.03% |
| O=NN(CCCl)C(=O)NC1CCCCC1 | inactive: -9.15% |
| Cc1ccc(C)c(N2CCN(C(=O)CS(=O)(=O)c3cccc4nsnc34)CC2)c1 | inactive: 13.5% |
| COc1ccc(OCC(=O)NCC(c2ccc(OC)cc2)N2CCOCC2)cc1 (stereo not given) | inactive: -14.5% |
| Cc1cccc(N2CCN(C(=O)CN3C(=O)COc4ccc(S(=O)(=O)N5CCCC5)cc43)CC2C)c1 (stereo not given) | inactive: -13.6% |
| Cc1cc(NC(=O)c2cnc3c(-c4ccccc4)c(C)nn3c2C)ccc1Br | inactive: 9.8% |
| Cc1cc(NC(=O)C(C)(C)C)cc(-c2nc3ncccc3o2)c1O | inactive: 10.9% |
| O=C(Cn1c(-c2cccs2)cc2cc(F)ccc21)NCCCN1CCN(c2ccc(F)cc2)CC1 | inactive: -11.7% |

| SMILES | activation |
| --- | --- |
| Cc1ccc(/C=C/c2onc(C)c2S(=O)(=O)N2CCC(C(=O)NCc3ccc(OC(C)C)cc3)CC2)cc1 | inactive: -27.2% |
| CCc1c(CN2CCN(c3ccccc3F)CC2)csc1C | inactive: 17.4% |
| Cc1ccc(CNC(=O)c2ccccc2NC(=O)c2nsc3ccccc23)cc1 | inactive: 2.03% |
| COc1ccc(-c2c(C)c3ccc(O)c(CN4CCCC4)c3oc2=O)cc1 | inactive: -9.7% |
| COc1cccc(CNCCSc2nnnn2-c2ccccc2)c1OC | inactive: -2.58% |
| COc1cccc(C(=O)n2nc(-c3cccnc3)nc2NCc2ccc(F)cc2)c1 | inactive: -22.9% |
| CCN(CC)CCSc1nnc2c3cc(F)ccc3n(CC)c2n1 | inactive: 3.07% |
| Cc1ccc(CCNC(=O)CCn2nc(-c3ccc(C)cc3)ccc2=O)cc1 | inactive: -12.8% |
| COC(=O)c1ccc2c(=O)n(CCCCCC(=O)N3CCN(c4ccc(Cl)cc4)CC3)c(=O)[nH]c2c1 | inactive: -17.2% |
| COC(=O)c1ccc(NC(=O)CN(Cc2ccccc2)S(=O)(=O)c2ccc(Cl)cc2)cc1 | inactive: -0.742% |
| CCCSc1nnc2c(n1)OC(c1cccs1)Nc1ccc(Br)cc1-2 (stereo not given) | inactive: 33% |
| COc1ccccc1CNC(=O)Cn1c(=O)nc(-c2ccccc2)c2ccccc21 | inactive: -9.95% |
| CNCCC(Oc1ccccc1OC)c1ccccc1 (stereo not given) | inactive: 24.9% and inactive: -13.4% |
| O=C(NCCc1ccccc1)c1ccc(CS(=O)(=O)c2ccc(Cl)cc2)o1 | inactive: -17.1% |
| Cc1c(Cl)cccc1NC(=O)Nc1ccc2snnc2c1 | inactive: 38% |
| Oc1c(C(c2ccccc2F)N2CCCC2)sc2nc(-c3ccco3)nn12 (stereo not given) | inactive: 9.21% |
| CCCC1=Nc2cc(C(=O)NCCOC)ccc2Sc2ccccc21 | inactive: -25.1% |
| CCCOc1ccccc1C1C(C(=O)Nc2ccccc2)=C(C)Nc2nnnn21 (stereo not given) | inactive: -11.6% |
| CCc1ccc(N(CC)C(=O)Cn2cnc3sc(C)c(S(=O)(=O)N4CCN(c5ncccn5)CC4)c3c2=O)cc1 | inactive: -10.2% |
| CCC(=O)N1c2ccc(S(=O)(=O)CCC(=O)NCc3cccc(OC)c3)cc2CC1C (stereo not given) | inactive: -3.18% |
| CC(=O)Nc1ccc(NC(=O)c2cc(-c3ccc4c(c3)OCCO4)on2)cc1 | inactive: -4.91% |
| CC1CNCCN1S(=O)(=O)c1cccc2cnccc12 (stereo not given) | inactive: -9.62% |

| SMILES | activation |
| --- | --- |
| Cc1cccc(S(=O)(=O)c2cn(C)c3cc(N4CCC(C)CC4)c(F)cc3c2=O)c1 | inactive: -18.4% |
| COc1ccc(-c2noc(CSc3nnc(C)n3-c3ccc(C)c(C)c3)n2)c(OC)c1 | inactive: -6.05% |
| COc1ccc(-c2nc(SCC(=O)NCCc3ccccc3)n[nH]2)cc1 | inactive: -0.718% |
| Cc1cccc(CSc2ccc(-c3cccs3)nn2)c1 | inactive: -8.15% |
| O=C(NCc1ccccc1Cl)c1nnc(Cc2ccc(Cl)cc2)o1 | inactive: 12.9% |
| CCOc1ccc(NC(=O)C(C)n2c(=O)cc(C)c3c(C)nn(-c4ccccc4)c32)cc1 (stereo not given) | inactive: -2.06% |
| CCc1ccc(OCC(=O)Nc2ccc3c(c2)c2ccccc2n3CC)c(Br)c1 | inactive: -10.1% |
| N#C/C(=C\c1cc(Br)c(O)c(Br)c1)c1nc2ccccc2c(=O)[nH]1 | inactive: -22.7% |
| COc1ccccc1O | inactive: 14.8% |
| Cc1ccc2onc(CC(=O)N3CCN(c4ccccc4)CC3)c2c1 | inactive: -27.7% |
| Cc1ccc(C)c(N(C)C(=O)Cc2c(C(=O)O)[nH]c3ccc(Cl)cc23)c1 | active: 70.2% |
| CC(C)(C)CC(C)(C)c1ccc(OCC(=O)Nc2ccc(S(=O)(=O)Nc3ncccn3)cc2)cc1 | inactive: -3.24% |
| COc1ccc(C2C(C(=O)Nc3ccc(C)cc3C)=C(C)Nc3nc(SCc4cccc(C)c4)nn32)c(OC)c1 (stereo not given) | inactive: -2.68% |
| CC1CN(S(=O)(=O)c2cccc3cnccc23)CCN1 (stereo not given) | inactive: -1.82% |
| COc1cccc(CNC(=O)CN2C(=O)N(c3cccc(Cl)c3)S(=O)(=O)c3ccccc32)c1OC | inactive: -6.08% |
| COc1ccc(N2CCN(S(=O)(=O)c3ccc(-c4cnc(C5CC5)o4)cc3)CC2)cc1 | inactive: 9.46% |
| CN(C)c1ccc(Nc2nc3ccccc3n3nnnc23)cc1 | inactive: -14.9% |
| COc1ccccc1-c1nn2c(=O)cc(CN3CCN(C(=O)/C=C/c4ccccc4)CC3)nc2s1 | inactive: -2.61% |
| COc1ccccc1CNC(=O)CSc1nc(=O)[nH]c2c1CCC2 | inactive: 1.73% |
